# In the supplement of paper PMC3334620:
# In all, about 33,000 sequences were measured (“E-score (-0.5 to 0.5)”: median about -0.017, highest 2% from about 0.3 on). This is one part of the list.
# Biological target: T1, Sut1 (UniProt P53032)
# T1 sequence: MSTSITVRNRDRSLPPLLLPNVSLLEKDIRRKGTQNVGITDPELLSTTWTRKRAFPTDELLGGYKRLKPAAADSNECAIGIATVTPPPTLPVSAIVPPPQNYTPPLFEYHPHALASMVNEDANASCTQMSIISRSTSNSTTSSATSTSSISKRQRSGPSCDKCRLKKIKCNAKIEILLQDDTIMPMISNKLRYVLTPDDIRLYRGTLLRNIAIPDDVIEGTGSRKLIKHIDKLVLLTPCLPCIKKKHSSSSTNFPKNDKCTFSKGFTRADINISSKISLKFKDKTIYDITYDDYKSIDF
# Assay: PBM E-score (8-mer binding enrichment) (E-score (-0.5 to 0.5)); higher = stronger / more preferred TF binding; most listed sequences are background and not binding sites
# Conditions: protein concentration: 200 nM; construct: GST-full length
# Method: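 Universal 'all 10-mer' protein binding microarrays (Agilent AMADID 015681) probed with GST-tagged S. cerevisiae TFs (full-length or DBD) made by in vitro transcription/translation (PURExpress), about 100-200 nM. Bound TF was detected with fluorescent anti-GST. Each ungapped 8-mer (which stands for itself and its reverse complement) is scored by the PBM enrichment score (E-score), a modified Wilcoxon-Mann-Whitney statistic from -0.5 to +0.5, computed with the Universal PBM Analysis Suite. Scale: above 0.35 generally sequence-specific binding.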
row,Sequence,PBM E-score
1,ATATCTCC,0.341
2,ATGGACAG,-0.159
3,CAGTAGCC,-0.205
4,AAATCGCT,0.0625
5,CCGGGAAG,0.118
6,AAGATCGC,-0.0393
7,CGATACAG,0.00085
8,CCAATTTC,0.196
9,AGAGTATG,-0.176
10,ACACGTCC,-0.119
11,CCGTCCGA,0.0411
12,AGGTTAAC,0.0215
13,GAACGAAA,-0.0251
14,CATTGACG,0.0133
15,CCGTAGCA,0.0419
16,ATAGAGTC,-0.0827
17,ACCTTTGC,-0.0651
18,GGTACTTA,0.0964
19,CCAGTGGG,-0.221
20,ATTATCTG,0.119
21,ATTGCGGC,-0.171
22,AGTTTATC,0.17
23,CTTTGCCA,0.0365
24,CTGGAGGC,-0.164
25,AATTCTTA,0.104

row,Sequence,PBM E-score
1,CCCGGGAA,-0.03
2,CCATCGTA,-0.0311
3,ATTCGGGA,0.0168
4,ACCGCAAA,0.0534
5,AACATGTC,0.143
6,GACAGACA,0.113
7,AACTGCGG,0.0736
8,CGACAACG,0.0179
9,ATTAACGA,0.213
10,AATAGAGG,-0.0802
11,AAGTTTGG,0.0859
12,ATCTTACG,0.111
13,CCGCCGAG,-0.0739
14,ATTTCGGA,0.396
15,GTGTGTCA,-0.0079
16,GGGTTTGA,0.135
17,GGACACGA,-0.152
18,CATCAGAA,0.0121
19,AGGGCTGC,-0.268
20,GAAACCCC,0.036
21,CAGTCCTA,-0.126
22,ACCGGACT,0.485
23,GAGTTGAC,0.153
24,GAGCCAAC,-0.0698
25,CAGCGATG,-0.0914

row,Sequence,PBM E-score
1,AGTTCCCG,-0.116
2,AGCAAGAA,0.104
3,AACTAGGC,-0.0715
4,CGCTTCCG,0.158
5,GTCTGCAC,-0.202
6,CTTTGCTC,0.00219
7,AAAGAGCC,-0.168
8,ATGGCCTG,-0.304
9,AGCTTAAG,-0.0922
10,TAGCTGAA,0.0295
11,ACCGCCCC,-0.196
12,ACATCACG,0.0369
13,TACACTAA,0.143
14,ATGAGATG,-0.0425
15,ACGGTCCA,-0.177
16,CCCCGCTC,-0.23
17,GCTATATA,0.118
18,CGATCAAC,-0.0996
19,GAACGTCA,-0.195
20,CCGCCAGC,-0.0274
21,GGAAGAGA,0.0239
22,CGGTATTA,0.135
23,ACAGATGG,-0.0956
24,ACACGTGT,-0.38
25,ATGGTCGA,-0.0153

row,Sequence,PBM E-score
1,AGGATGAC,-0.248
2,GGAGACTA,0.0756
3,GATATGGC,-0.172
4,ATTTCATG,-0.00066
5,ATTGAGTA,0.198
6,AGACAGAA,0.0734
7,CTGTTGGA,0.0447
8,CGAAATGA,0.0558
9,CAGAAGGC,-0.0672
10,CCGGGAGG,-0.167
11,AGCGGGAT,-0.216
12,AAGGACCA,-0.0882
13,ATATCGCA,-0.162
14,CTCCCTAC,-0.138
15,GGGCGCAC,-0.267
16,CGGATAAC,0.264
17,GAACCGAC,0.0902
18,CAGTATCC,0.0864
19,ATAAAATG,0.289
20,ACTCTGGC,-0.0886
21,AATATTAC,0.28
22,CGTGGTCA,-0.251
23,GCGCGTTA,-0.0394
24,AGCGTCAA,-0.0624
25,AGAGTCAT,-0.183

row,Sequence,PBM E-score
1,ACTTCGAA,-0.0295
2,ATTGACGC,-0.0771
3,ATAACAAT,0.282
4,TAAGGGGA,-0.135
5,ACCCCCAC,-0.411
6,ATCATCGG,0.233
7,GAAAACGC,-0.0831
8,CCACAGAA,-0.0429
9,AACACGAT,0.0685
10,AATCGCAC,-0.0551
11,ATTGGGTA,0.0525
12,ATTTATTC,0.243
13,GATCGATA,0.0121
14,GGTACATA,0.178
15,ACTAGAAC,0.253
16,CTCATAGC,-0.0832
17,ACTTGCCA,-0.104
18,ATGTGAGG,-0.0862
19,GAATTTTA,0.251
20,AGGGGGAT,-0.113
21,CACTTAGG,-0.175
22,ATTATAGA,0.25
23,CAGGGGAG,-0.324
24,CTCTTCGC,-0.0209
25,CGGTTACG,-0.0542

row,Sequence,PBM E-score
1,GCAACTCA,0.0595
2,ACAATAAC,0.205
3,CCGGCGAC,-0.0592
4,AGGGTTCC,-0.0423
5,CTGAAGCA,-0.0713
6,ACAAAAGG,0.151
7,CCGCATCC,-0.0678
8,TAGCCTGA,0.0143
9,CTACCCAG,-0.18
10,ACGTAATA,0.148
11,GGCCCTTA,-0.281
12,GGGCGAAA,0.0444
13,ATTCTGCC,-0.0702
14,AAGTTCTG,-0.0216
15,TAGCAGGA,-0.0767
16,AATAGAAG,0.126
17,CAGAGACC,-0.142
18,CTTAGAAA,0.0731
19,CGCGCGGA,0.196
20,CTCGCCTC,-0.277
21,CTGGATAC,-0.194
22,CTGCTCGC,-0.163
23,AACCTCGG,0.174
24,GGTTAGAC,0.0526
25,AGTTAGAT,0.00854

row,Sequence,PBM E-score
1,AGAGACTG,-0.211
2,ACTCGCCA,-0.144
3,ACCGAGCA,0.205
4,ATCACCGC,-0.164
5,GGAATGCA,0.119
6,ACGAGTTG,-0.052
7,ACGCGTTA,-0.12
8,GTTTATCA,0.176
9,AACTAAGT,0.103
10,CGTGAGAG,-0.355
11,GGCCAAGA,-0.19
12,CCTTCACG,-0.0548
13,CCCTGCAG,-0.195
14,CCAAAGTC,0.0256
15,CGTTTTGC,0.00155
16,GGCTGGAA,-0.169
17,ATGTGTCC,-0.091
18,CTCGCACA,-0.138
19,GCTGGGGA,-0.314
20,CTGACAGC,-0.189
21,CAAAAACC,0.225
22,GCATTACA,-0.0955
23,CTATTCAC,0.116
24,AAAACCCG,0.0707
25,CAAGAAGA,0.165

row,Sequence,PBM E-score
1,AAGAGTGT,0.0481
2,GATAGGAC,-0.185
3,ACATCACT,0.00696
4,CATCAACG,-0.0773
5,GGGTTAGA,-0.16
6,CAGCAATC,-0.00135
7,ACGACATG,0.0335
8,TGGTACCA,-0.0181
9,ACCTACAT,-0.0217
10,ACGGTACT,-0.0859
11,GGATAGAC,-0.208
12,GGGGCTAC,-0.225
13,CGCAAGAG,-0.155
14,CACGAACC,0.00159
15,AACATGAT,0.0802
16,AAACACAC,0.0419
17,TAATCCTA,0.0332
18,AAGCGATC,-0.0122
19,CGCCGAAA,-0.00015
20,CGGACATC,0.406
21,TATGGAAA,0.158
22,CCTACTAG,-0.109
23,CAGGATCA,-0.154
24,CAGGGTAA,-0.171
25,GGTCAAGA,-0.0819

row,Sequence,PBM E-score
1,AGTGGATC,-0.0112
2,ATATGGCG,-0.175
3,CGCGGACC,0.277
4,AAAATAAC,0.12
5,AGCACACG,-0.157
6,CACGTGAA,-0.0385
7,AGCCCAAT,-0.0804
8,ACGAATGC,-0.0365
9,GTCGGCAC,-0.0576
10,ACTTTTCA,0.0168
11,CCACTGGG,-0.25
12,CCTTTGTA,-0.125
13,AGGCAATC,0.0365
14,CGGGATCA,-0.148
15,AAGTACGT,0.0407
16,ATCGCTTG,-0.258
17,ACTTTCAG,0.0286
18,GCACTCCA,-0.125
19,CACTCCGC,0.367
